# Test results: the supplement of paper PMC12217912
# The list shows a part of the results. Sequences were assembled here from the parent chain. Inactive controls read about 0.05.
# B1: TEV protease; numbered along this chain (parent)
# chain: MGESLFKGPRDYNPISSSICHLTNESDGHTTSLYGIGFGPFIITNKHLFRRNNGTLVVQSLHGVFKVKDTTTLQQHLVDGRDMIIIRMPKDFPPFPQKLKFREPQREERICLVTTNFQTKSMSSMVSDTSCTFPSGDGIFWKHWIQTKDGQCGSPLVSTRDGFIVGIHSASNFTNTNNYFTSVPKNFMELLTNQEAQQWVSGWRLNADSVLWGGHKVFMVKPEEPFQPVKEATQL
# Variants of: B1
# Experiment: raw area under fraction-flipped curve 0-4 h after induction (AUC4h, not background-subtracted), DNA-recorder readout of cleavage of the substrate (dimensionless); higher = more cleavage of the substrate by the protease variant
# Details: temperature: 34 °C; time window: 0-4 h after rhamnose induction
# 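Also: Bxb1 expression induced with 0.2% (w/v) L-rhamnose at OD600 near 0.5, cultures sampled hourly, flipped fraction per protease–substrate barcode pair counted by paired-end Illumina sequencing.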
Variant,area with substrate ENLYCQS,area with substrate ENLYDQS,area with substrate ENLYEQS,area with substrate ENLYGQS,area with substrate ENLYHQS,area with substrate ENLYIQS,area with substrate ENLYKQS,area with substrate ENLYLQS,area with substrate ENLYMQS,area with substrate ENLYNQS,area with substrate ENLYPQS,area with substrate ENLYQQS,area with substrate ENLYRQS,area with substrate ENLYVQS,area with substrate ENLYWQS,area with substrate ENLYTQS,area with substrate ENLYYQS,area with substrate ENLYSQS
S135F,0.0775,0.0623,0.0574,0.0563,0.053,0.0659,0.0511,0.0537,0.0547,0.0555,0.0687,0.0648,0.0554,0.0651,0.0566,,,
S135K,0.0711,0.0599,0.0564,0.0303,0.0579,0.0757,0.0586,,0.0514,0.0566,0.0616,0.0604,,0.0679,0.0653,0.0602,0.0584,
F173E,0.102,0.0508,0.0588,,0.0615,0.149,,0.0689,,,0.0733,,0.0843,0.117,,,0.0433,
T147F,0.0514,,,,0.0371,0.052,,0.0534,0.0637,0.0609,0.0642,,,0.0597,0.0488,,0.0308,0.0622
N13M,0.0892,0.0567,0.0634,0.0668,,0.132,0.0499,0.0726,0.115,,0.065,0.0483,0.0588,,0.0895,0.0915,,0.0697
M122V,0.101,,0.0629,,0.0698,0.105,0.0114,,0.0769,0.0625,0.0721,0.0604,0.106,0.0883,0.0867,,,
D137F,0.0881,0.0597,0.056,0.0592,0.0602,0.0954,0.0521,,0.0647,,0.0701,0.0637,0.0689,,,0.0651,,0.066
